Drawing on publication PMC12820563, “FoxP3 forms a head-to-head dimer in vivo and stabilizes its multimerization on adjacent microsatellites”, this text covers binding signal for 31 sequences.

The list shows a part of the results.

For the assay, the target named is T1, MBP-FoxP1dN (Mus musculus, UniProt P58462 326-579).
T1 sequence: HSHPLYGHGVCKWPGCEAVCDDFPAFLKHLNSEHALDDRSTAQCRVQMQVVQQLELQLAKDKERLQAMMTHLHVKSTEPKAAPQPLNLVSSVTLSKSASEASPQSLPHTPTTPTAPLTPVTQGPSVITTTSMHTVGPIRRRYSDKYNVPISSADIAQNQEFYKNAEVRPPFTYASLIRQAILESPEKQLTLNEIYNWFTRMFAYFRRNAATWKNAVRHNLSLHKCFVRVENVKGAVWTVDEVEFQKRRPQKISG
As to the kind of experiment: PD-seq (MBP pull-down with sequencing); 20 mM Tris-HCl pH 7.5, 100 mM NaCl, 1.5 mM MgCl2, 0.4 uM protein, 0.1 uM dsDNA library, 30 min, room temperature, amylose pull-down; high values mean tight binding. Particulars: protein: recombinant; tags: His6-MBP; chain copies: 2; dsDNA, one strand shown. The gist of the method:
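Binding is given as reads-per-million enrichment, pull-down over input, with replicates pooled. The bait was an N-terminus-lacking mouse FoxP3 or FoxP1 fragment with a His6-MBP tag, expressed in E. coli and used at 0.4 µM with 0.1 µM Klenow-filled degenerate double-stranded DNA library for 30 min at room temperature in Tris pH 7.5 buffer with NaCl and MgCl2. Amylose resin pull-down with three washes was followed by proteinase K release, PCR barcoding and Illumina sequencing.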
In the case of “GATGATTGTTCTCCCAGCTGATGAATTGTGTACCTCGAGTAAACAAATTTTCCTAATCTTTCTGTTCAAGCGCCATCTAC”, the binding signal is 1.6 RPM ratio (pull-down/input).
As for “GATGATTGTTCTCCCAGCTGATGAATTTATTGAGTCGAGTAAACAAATTTTCCTAATCTTTCTGTTCAAGCGCCATCTAC”, the figure is 1.1 RPM ratio (pull-down/input).
For “GATGATTGTTCTCCCAGCTGATGAATTTCGTTACTCGAGTAAACAAATTTTCCTAATCTTTCTGTTCAAGCGCCATCTAC”, the binding signal was 0.864 RPM ratio (pull-down/input).
As for “GATGATTGTTCTCCCAGCTGATGAATTTCAAGGATCGAGTAAACAAATTTTCCTAATCTTTCTGTTCAAGCGCCATCTAC”, the figure is 0.841 RPM ratio (pull-down/input); as for “GATGATTGTTCTCCCAGCTGATGAATTGCATGTATCGAGTAAACAAATTTTCCTAATCTTTCTGTTCAAGCGCCATCTAC”, 1.43 RPM ratio (pull-down/input); as for “GATGATTGTTCTCCCAGCTGATGAATTACGCACCTCGAGTAAACAAATTTTCCTAATCTTTCTGTTCAAGCGCCATCTAC”, 0.919 RPM ratio (pull-down/input).
To “GATGATTGTTCTCCCAGCTGATGAATTTGTATACTCGAGTAAACAAATTTTCCTAATCTTTCTGTTCAAGCGCCATCTAC” belongs 2.13 RPM ratio (pull-down/input); to “GATGATTGTTCTCCCAGCTGATGAATTGGAATATTCGAGTAAACAAATTTTCCTAATCTTTCTGTTCAAGCGCCATCTAC”, 0.93 RPM ratio (pull-down/input); to “GATGATTGTTCTCCCAGCTGATGAATTAGTTACATCGAGTAAACAAATTTTCCTAATCTTTCTGTTCAAGCGCCATCTAC”, 1.13 RPM ratio (pull-down/input).
For “GATGATTGTTCTCCCAGCTGATGAATTCTTGCCATCGAGTAAACAAATTTTCCTAATCTTTCTGTTCAAGCGCCATCTAC”, the binding signal is 0.955 RPM ratio (pull-down/input).
As for “GATGATTGTTCTCCCAGCTGATGAATTTCATGACTCGAGTAAACAAATTTTCCTAATCTTTCTGTTCAAGCGCCATCTAC”, the figure is 0.827 RPM ratio (pull-down/input); as for “GATGATTGTTCTCCCAGCTGATGAATTCATATCGTCGAGTAAACAAATTTTCCTAATCTTTCTGTTCAAGCGCCATCTAC”, 0.946 RPM ratio (pull-down/input).
As for “GATGATTGTTCTCCCAGCTGATGAATTCGGCAATTCGAGTAAACAAATTTTCCTAATCTTTCTGTTCAAGCGCCATCTAC”, the figure is 0.974 RPM ratio (pull-down/input).
For “GATGATTGTTCTCCCAGCTGATGAATTCGGGTACTCGAGTAAACAAATTTTCCTAATCTTTCTGTTCAAGCGCCATCTAC”, the binding signal is 0.838 RPM ratio (pull-down/input).
For the sequence “GATGATTGTTCTCCCAGCTGATGAATTGTAACGGTCGAGTAAACAAATTTTCCTAATCTTTCTGTTCAAGCGCCATCTAC”, the binding signal was 0.979 RPM ratio (pull-down/input).
As for “GATGATTGTTCTCCCAGCTGATGAATTTTTCGTATCGAGTAAACAAATTTTCCTAATCTTTCTGTTCAAGCGCCATCTAC”, the figure is 1 RPM ratio (pull-down/input); as for “GATGATTGTTCTCCCAGCTGATGAATTCAAGCCTTCGAGTAAACAAATTTTCCTAATCTTTCTGTTCAAGCGCCATCTAC”, 0.87 RPM ratio (pull-down/input).
In the case of “GATGATTGTTCTCCCAGCTGATGAATTTCACAGTTCGAGTAAACAAATTTTCCTAATCTTTCTGTTCAAGCGCCATCTAC”, the binding signal was 0.88 RPM ratio (pull-down/input).
As for “GATGATTGTTCTCCCAGCTGATGAATTAGGGTAGTCGAGTAAACAAATTTTCCTAATCTTTCTGTTCAAGCGCCATCTAC”, the figure is 0.899 RPM ratio (pull-down/input); as for “GATGATTGTTCTCCCAGCTGATGAATTCTCGGCATCGAGTAAACAAATTTTCCTAATCTTTCTGTTCAAGCGCCATCTAC”, 1.02 RPM ratio (pull-down/input); as for “GATGATTGTTCTCCCAGCTGATGAATTCCACTAATCGAGTAAACAAATTTTCCTAATCTTTCTGTTCAAGCGCCATCTAC”, 1.07 RPM ratio (pull-down/input).
Take “GATGATTGTTCTCCCAGCTGATGAATTTCGCACCTCGAGTAAACAAATTTTCCTAATCTTTCTGTTCAAGCGCCATCTAC”: the binding signal was 0.792 RPM ratio (pull-down/input).
As for “GATGATTGTTCTCCCAGCTGATGAATTTGCACCCTCGAGTAAACAAATTTTCCTAATCTTTCTGTTCAAGCGCCATCTAC”, the figure is 0.929 RPM ratio (pull-down/input); as for “GATGATTGTTCTCCCAGCTGATGAATTTAGATCTTCGAGTAAACAAATTTTCCTAATCTTTCTGTTCAAGCGCCATCTAC”, 0.992 RPM ratio (pull-down/input); as for “GATGATTGTTCTCCCAGCTGATGAATTGTGTTGTTCGAGTAAACAAATTTTCCTAATCTTTCTGTTCAAGCGCCATCTAC”, 2.69 RPM ratio (pull-down/input).
As for “GATGATTGTTCTCCCAGCTGATGAATTCTCGGGATCGAGTAAACAAATTTTCCTAATCTTTCTGTTCAAGCGCCATCTAC”, the figure is 0.724 RPM ratio (pull-down/input).
As for “GATGATTGTTCTCCCAGCTGATGAATTCAAATGTTCGAGTAAACAAATTTTCCTAATCTTTCTGTTCAAGCGCCATCTAC”, the figure is 0.944 RPM ratio (pull-down/input).
On to “GATGATTGTTCTCCCAGCTGATGAATTAGATACGTCGAGTAAACAAATTTTCCTAATCTTTCTGTTCAAGCGCCATCTAC”, for which the binding signal is 1.06 RPM ratio (pull-down/input).
To “GATGATTGTTCTCCCAGCTGATGAATTCGGTCGGTCGAGTAAACAAATTTTCCTAATCTTTCTGTTCAAGCGCCATCTAC” belongs 0.76 RPM ratio (pull-down/input).
To “GATGATTGTTCTCCCAGCTGATGAATTATGACTCTCGAGTAAACAAATTTTCCTAATCTTTCTGTTCAAGCGCCATCTAC” belongs 0.928 RPM ratio (pull-down/input); to “GATGATTGTTCTCCCAGCTGATGAATTTCTGAGATCGAGTAAACAAATTTTCCTAATCTTTCTGTTCAAGCGCCATCTAC”, 0.753 RPM ratio (pull-down/input).
